# Laboratory results as given in PubChem BioAssay (Tox21).
# “And” between values parts separate entries of the source, which are not always exact repeats. Equal values may be shown once. The shares of active, inactive and inconclusive entries below differ from those in the screen. For some of these results: Potencies beside an inconclusive call are fits to weak or partial responses and may not hold up. Some structures have more than one record in an assay (separate samples or runs), and their calls can disagree. The source made the active and inactive calls. Unless noted, the call rests on the fitted dose curve; in most records, active means well fitted curve in the direction sought with a large enough effect in the repeat runs; inconclusive means weak or mixed curves; inactive means no such curve, though single readings can be large; an effect the other way counts as inactive or inconclusive.
# Tests used:
# [1] = qHTS assay for small molecules that induce genotoxicity in human embryonic kidney cells expressing luciferase-tagged ATAD5 - cell viability (AID 651634; calls by dose curve; further: nearly all actives have a fitted effect of over 25% in size; further: potency means the concentration at half of the fitted maximal effect; on activity, negative = cytotoxicity: on the % scale 0 is the no-effect control and ±100 the full control effect)
# In short: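 Viability read: CellTiter-Fluor fluorescence, 30 min at 37C. Cells: HEK293T, luciferase-tagged ATAD5. Exposure: 15.5 hr, 37C, 5% CO2, compound or DMSO vehicle.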
# [2] = qHTS assay for small molecule disruptors of the mitochondrial membrane potential (AID 720635); settings: HepG2 mitochondrial membrane potential, Mito-MPS dye ratio; further: potency means the concentration at half of the fitted maximal effect; on ratio activity, negative = MMP loss: on the % scale 0 is the no-effect control and ±100 the full control effect
# In short: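 HepG2 cells exposed to compound 1 hr at 37C, then Mito-MPS dye 30 min. Ratio read of aggregate (540/590 nm) versus monomer (490/535 nm) fluorescence.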
# [3] = qHTS assay for identifying genotoxic compounds that show differential cytotoxicity against isogenic chicken DT40 cell lines with known DNA damage response pathways - Rev3 mutant cell line (AID 743014); settings: chicken DT40 Rev3-/- viability, CellTiter-Glo, 40 h; activity, negative = cytotoxicity: at 68.4 µM (top of the series) unless noted; further: nearly all actives have a fitted effect of over 55% in size; further: potency means the concentration at half of the fitted maximal effect; on activity, negative = cytotoxicity: on the % scale 0 is the no-effect control and ±100 the full control effect
# [4] = qHTS assay for small molecule disruptors of the mitochondrial membrane potential - cell viability (AID 720634; calls by dose curve; further: nearly all actives have a fitted effect of over 20% in size; further: potency means the concentration at half of the fitted maximal effect)
# In short: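 HepG2, 1 hr compound, 37 C. ATP luminescence via CellTiter-Glo, 30 min RT, same well as m-MPI.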
# [5] = qHTS assay to identify small molecule antagonists of the glucocorticoid receptor (GR) signaling pathway - cell viability counter screen (AID 720693); settings: GR-bla HeLa viability, CellTiter-Glo luminescence, 18 h, with 5 nM dexamethasone present; viability change, negative = cytotoxic: at 58.5 µM (top of the series) unless noted; further: on the % scale 0 is the no-effect control and ±100 the full control effect; nearly all actives have a fitted effect of over 55% in size
# [6] = qHTS assay for identifying genotoxic compounds that show differential cytotoxicity against isogenic chicken DT40 cell lines with known DNA damage response pathways - wild type cell line (AID 743012); settings: DT40 wild type chicken cells viability, CellTiter-Glo, 40 h; activity change, negative = cytotoxicity: at 68.4 µM (top of the series) unless noted; further: nearly all actives have a fitted effect of over 60% in size; further: potency means the concentration at half of the fitted maximal effect
# In short: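 First, wild type DT40 cells were plated at 300 per well and equilibrated about 0.5 h at 37 C/5% CO2. Next, compounds in DMSO were added and exposure lasted 40 h. Finally, CellTiter-Glo was added for 30 min at room temperature and luminescence recorded.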
# [7] = target: Glucocorticoid receptor (Homo sapiens) (UniProt P04150); assay: qHTS assay to identify small molecule antagonists of the glucocorticoid receptor (GR) signaling pathway (AID 720692; active means well fitted inhibition curve with a large enough effect in the signal ratio in the repeat runs, not every such curve was filed as active; inconclusive means weak or mixed curves, or effect the other way; inactive means no such curve, though single readings can be large or run the other way; the % refers to the signal ratio; further: potency means the concentration at half of the fitted maximal effect); settings: GR-bla HeLa, beta-lactamase FRET ratio, dexamethasone-stimulated, 18 h; activity change, negative = inhibition: at 58.5 µM (top of the series) unless noted
# In short: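 Inhibition of glucocorticoid signalling is measured in HeLa cells with a GRE-controlled beta-lactamase reporter; cells are co-treated with compound and 5 nM dexamethasone (final) for 18 h before FRET substrate readout.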
# [8] = qHTS assay for small molecule agonists of the p53 signaling pathway - cell viability (AID 651633; calls by dose curve; further: potency means the concentration at half of the fitted maximal effect; nearly all actives have a fitted effect of over 30% in size)
# In short: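 p53RE-bla cells were treated with compound for 16 hours at 37 C. Cytotoxicity was then measured as CellTiter-Glo luminescence after 30 min at room temperature.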
# [9] = qHTS assay for identifying genotoxic compounds that show differential cytotoxicity against isogenic chicken DT40 cell lines with known DNA damage response pathways - Rad54/Ku70 mutant cell line (AID 743015); settings: DT40 Rad54/Ku70 mutant viability, CellTiter-Glo, 40 h; activity change, negative = cytotoxicity: at 66.8 µM (top of the series) unless noted; further: nearly all actives have a fitted effect of over 60% in size; further: potency means the concentration at half of the fitted maximal effect
# [10] = target: Glucocorticoid receptor (Homo sapiens) (UniProt P04150); assay: qHTS assay to identify small molecule agonists of the glucocorticoid receptor (GR) signaling pathway (AID 720691; active means well fitted activation curve with a large enough effect in the signal ratio in the repeat runs, not every such curve was filed as active; inconclusive means weak or mixed curves, or effect the other way; inactive means no such curve, though single readings can be large or run the other way; the % refers to the signal ratio; further: on the % scale 0 is the no-effect control and ±100 the full control effect); settings: GR-bla HeLa, beta-lactamase reporter ratio, 18 h; activation: at 62.4 µM (top of the series) unless noted
# In short: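 qHTS in GR-bla HeLa cells: 4 h settling at 37 C/5% CO2, 18 h compound incubation at 37 C, 2 h LiveBLAzer B/G FRET substrate at room temperature, fluorescence intensity measured.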
# [11] = ratio activity, negative = MMP loss: at 83.2 µM (top of the series) unless noted
# Tags describe the fitted curve by direction and shape or compound fluorescence and quenching.
# Sequence of UniProt P04150 (P04150 whole entry, looked up): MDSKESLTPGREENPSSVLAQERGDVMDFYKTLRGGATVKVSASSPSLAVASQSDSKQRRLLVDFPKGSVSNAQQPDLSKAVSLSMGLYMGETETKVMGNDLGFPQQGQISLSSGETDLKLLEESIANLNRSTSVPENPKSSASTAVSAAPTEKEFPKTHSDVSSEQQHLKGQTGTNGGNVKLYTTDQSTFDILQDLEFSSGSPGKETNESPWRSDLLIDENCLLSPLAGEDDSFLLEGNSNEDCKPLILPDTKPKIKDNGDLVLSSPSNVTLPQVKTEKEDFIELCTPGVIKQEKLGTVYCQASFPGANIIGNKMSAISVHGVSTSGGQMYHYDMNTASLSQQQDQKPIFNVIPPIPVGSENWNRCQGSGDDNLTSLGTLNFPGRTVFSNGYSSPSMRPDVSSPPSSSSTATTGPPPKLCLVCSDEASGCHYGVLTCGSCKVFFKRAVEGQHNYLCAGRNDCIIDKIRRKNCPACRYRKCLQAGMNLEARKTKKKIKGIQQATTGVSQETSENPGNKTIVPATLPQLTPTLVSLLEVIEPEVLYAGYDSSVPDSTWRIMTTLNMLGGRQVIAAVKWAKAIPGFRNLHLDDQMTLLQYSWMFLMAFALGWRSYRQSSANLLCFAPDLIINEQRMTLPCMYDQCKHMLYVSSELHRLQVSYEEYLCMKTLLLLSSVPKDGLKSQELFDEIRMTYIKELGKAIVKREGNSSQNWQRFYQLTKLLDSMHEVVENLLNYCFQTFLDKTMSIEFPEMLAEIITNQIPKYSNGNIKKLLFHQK
compound,measurement,setting,value
Nc1cc(Cl)cc(C(=O)O)c1Cl,Potency,[1],"inconclusive: 38.3 µM [falling, partial curve, poor fit]"
same,"ratio activity, negative = MMP loss",[2]; [11],inconclusive: 11.5%
CCS(=O)(=O)C(C)(C)S(=O)(=O)CC,Potency,[1],inactive
same,Potency,[2]; [11],inactive
same,Potency,[3],inactive
O=[N+]([O-])c1cc(C(F)(F)F)cc([N+](=O)[O-])c1Cl,Potency,[1],"inconclusive: 30.8 µM [falling, partial curve]"
same,Potency,[4],"inconclusive: 61.4 µM [cytotoxic, partial curve, poor fit]"
same,Potency,[2]; [11],"inconclusive: 61.4 µM [activator, partial curve]"
same,Potency,[5],inactive
ClCCBr,Potency,[1],"inconclusive: 68.6 µM [falling, partial curve, poor fit]"
same,Potency,[2]; [11],inactive
same,Potency,[6],"inconclusive: 17.2 µM [rising, partial curve, poor fit]"
COP(=S)(OC)Oc1cc(Cl)c(Cl)cc1Cl,Potency,[4],"inconclusive: 30.4 µM [cytotoxic, partial curve]"
same,Potency,[2]; [11],active: 11.9 µM and active: 29.8 µM and active: 7.64 µM
same,Potency,[7],"inconclusive: 0.477 µM [activator, single point]"
same,"activity change, negative = inhibition",[7],inconclusive: 19.5%
same,Potency,[6],"inconclusive: 26.6 µM [cytotoxic, partial curve, poor fit]"
O=NN1CCCCCCC1,Potency,[8],"inconclusive: 68.5 µM [cytotoxic, single point]"
same,"ratio activity, negative = MMP loss",[2]; [11],inconclusive: 19.3%
same,Potency,[7],"inactive and inconclusive: 11 µM [activator, single point]"
CON(C)C(=O)Nc1ccc(Cl)c(Cl)c1,Potency,[4],"inconclusive: 61.4 µM [cytotoxic] and inconclusive: 38.6 µM [cytotoxic, partial curve, poor fit]"
same,Potency,[2]; [11],active: 61.4 µM and active: 43.3 µM
same,"activity change, negative = inhibition",[7],inconclusive: -2.32%
same,Potency,[5],inactive
same,Potency,[3],"inconclusive: 68.6 µM [cytotoxic, single point]"
CN=C=S,Potency,[4],inactive
same,"ratio activity, negative = MMP loss",[2]; at 95.3 µM (top of the series),inactive: 6.69%
same,"ratio activity, negative = MMP loss",[2]; [11],inconclusive: 0.578% [at 95.3 µM]
same,Potency,[3],"inconclusive: 116 µM [cytotoxic, partial curve]"
C[C@H]1[C@H](c2ccc(Cl)cc2)SC(=O)N1C(=O)NC1CCCCC1,Potency,[4],"inconclusive: 48.6 µM [cytotoxic, partial curve]"
same,Potency,[2]; [11],active: 15.4 µM
same,"activity change, negative = inhibition",[7],inconclusive: -27.7%
same,Potency,[6],"inconclusive: 27.3 µM [cytotoxic, single point]"
same,Potency,[3],"inconclusive: 24.3 µM [cytotoxic, single point]"
same,Potency,[9],"inconclusive: 27.3 µM [cytotoxic, single point]"
Cl/C=C/CCl,Potency,[4],inactive
same,Potency,[2]; [11],inactive
same,"activity change, negative = inhibition",[7],inconclusive: 5.21% [at 78.9 µM]
NNc1ccccc1,Potency,[4],"inconclusive: 68.5 µM [cytotoxic, partial curve, poor fit]"
same,"ratio activity, negative = MMP loss",[2]; at 83.2 µM (top of the series),inactive: -9.73% and inactive: -12.1%
same,Potency,[2]; [11],inconclusive: 68.5 µM [inhibitor] and inconclusive: 68.6 µM [inhibitor]
same,"ratio activity, negative = MMP loss",[2]; [11],inconclusive: -9.4%
same,Potency,[6],"inconclusive: 76.8 µM [rising, single point]"
same,"activity change, negative = cytotoxicity",[6],inconclusive: -27%
same,Potency,[9],"inconclusive: 34.4 µM [cytotoxic, full curve]"
ClCC(Br)CBr (stereo not drawn),Potency,[1],inactive
same,Potency,[2]; [11],"inconclusive: 4.82 µM [activator, partial curve]"
CC1(C)[C@H](C=C(Cl)Cl)[C@@H]1C(=O)O[C@@H](C#N)c1cccc(Oc2ccccc2)c1,Potency,[8],"inconclusive: 61.1 µM [cytotoxic, partial curve, poor fit]"
same,Potency,[7],"inconclusive: 61.6 µM [activator, single point]"
same,Potency,[3],inactive
CCC(C)Nc1c([N+](=O)[O-])cc(C(C)(C)C)cc1[N+](=O)[O-] (stereo not drawn),Potency,[4],"inconclusive: 34.4 µM [cytotoxic, partial curve, poor fit]"
same,Potency,[2]; [11],"inconclusive: 17.2 µM [inhibitor, partial curve]"
CCN(CC)C(=O)N[C@@H]1C=C2c3cccc4[nH]cc(c34)C[C@@H]2N(C)C1,Potency,[1],"inconclusive: 7.5 µM [falling, partial curve, poor fit]"
same,Potency,[2]; [11],active: 1.68 µM
same,Potency,[10],inactive
Oc1c(Cl)cccc1Cl,Potency,[1],inactive
same,Potency,[9],inactive
CC(C)N(CCC(C(N)=O)(c1ccccc1)c1ccccn1)C(C)C (stereo not drawn),Potency,[4],inactive
